Drawing on article PMC4564177, this text covers binding for 2 molecules.

Amino acid sequences for entries named in this document (tags omitted). A change or cut given only in a name is not applied to a line headed by its entry. Chains listed by the source or under a name are the forms on record and can include a tag or linker. Residues count along the entry.
myc-GFP-CRHR1 (P35347, residues 24-415): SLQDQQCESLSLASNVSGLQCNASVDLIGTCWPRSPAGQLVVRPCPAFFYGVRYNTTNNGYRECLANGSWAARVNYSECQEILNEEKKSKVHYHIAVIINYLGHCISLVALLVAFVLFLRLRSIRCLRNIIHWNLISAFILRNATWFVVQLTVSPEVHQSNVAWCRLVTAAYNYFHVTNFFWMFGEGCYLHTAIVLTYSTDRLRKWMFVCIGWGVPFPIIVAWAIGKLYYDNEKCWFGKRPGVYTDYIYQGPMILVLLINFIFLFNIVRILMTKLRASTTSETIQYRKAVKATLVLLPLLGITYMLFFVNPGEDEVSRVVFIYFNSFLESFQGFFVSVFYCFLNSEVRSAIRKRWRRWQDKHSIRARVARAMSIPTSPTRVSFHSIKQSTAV
myc-GFP-CRHR1-STAVA (P35347, form named): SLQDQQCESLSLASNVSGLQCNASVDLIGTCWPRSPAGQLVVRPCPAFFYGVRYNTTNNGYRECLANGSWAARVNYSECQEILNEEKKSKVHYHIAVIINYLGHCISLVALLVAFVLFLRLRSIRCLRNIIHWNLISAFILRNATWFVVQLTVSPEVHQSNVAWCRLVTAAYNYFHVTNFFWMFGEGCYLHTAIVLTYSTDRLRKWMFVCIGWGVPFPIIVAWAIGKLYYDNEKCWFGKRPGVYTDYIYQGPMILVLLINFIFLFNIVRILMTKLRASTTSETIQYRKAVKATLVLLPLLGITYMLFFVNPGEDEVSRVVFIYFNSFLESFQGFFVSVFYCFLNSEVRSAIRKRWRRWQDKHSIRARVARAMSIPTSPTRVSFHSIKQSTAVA

No constants are given. Whether binding was seen depends on the method and setting. Binding seen in cells or lysates may run through a third protein. Some results given as binding are weak or reduced against the parent protein; the word gives no strength. Sequences can lack the tags named with a protein.

The target of one assay is myc-GFP-CRHR1 (mouse) (UniProt P35347). As to the kind of experiment: co-IP; lysates of HEK293 cells transiently co-transfected; IP overnight at 4°C with anti-GFP, anti-myc, anti-HA or anti-flag and Protein G Dynabeads; washes with 500 mM NaCl, 0.1% SDS, 0.5% Triton X-100; immunoblot; for syntenin-1 under basal conditions and after CRH (100 nM) treatment.
For assay [1], the target named is myc-GFP-CRHR1-STAVA (mouse) (UniProt P35347). Described as above.

B1: flag-SAP102 PDZ3 (aa 394–849) (domain or fragment, UniProt P70175 394-849)
chain: AEEDFTREPRKIILHKGSTGLGFNIVGGEDGEGIFVSFILAGGPADLSGELRRGDRILSVNGVNLRNATHEQAAAALKRAGQSVTIVAQYRPEEYSRFESKIHDLREQMMNSSMSSGSGSLRTSEKRSLYVRALFDYDRTRDSCLPSQGLSFSYGDILHVINASDDEWWQARLVTPHGESEQIGVIPSKKRVEKKERARLKTVKFHARTGMIESNRDFPGLSDDYYGAKNLKGVTSNTSDSESSSKGQEDAILSYEPVTRQEIHYARPVIILGPMKDRVNDDLISEFPHKFGSCVPHTTRPRRDNEVDGQDYHFVVSREQMEKDIQDNKFIEAGQFNDNLYGTSIQSVRAVAERGKHCILDVSGNAIKRLQQAQLYPIAIFIKPKSIEALMEMNRRQTYEQANKIFDKAMKLEQEFGEYFTAIVQGDSLEEIYNKIKQIIEDQSGHYIWVPSPEKL
As to B1, in the assay with myc-GFP-CRHR1 (mouse), the binding result is given as “no binding”.

B2: flag-SAP102 (protein, UniProt P70175 1-849)
chain: MHKHQHCCKCPECYEVTRLAALRRLEPPGYGDWQVPDPYGPSGGNGASSGYGGYSSQTLPSQAGATPTPRTKAKLIPTGRDVGPVPPKPVPGKSTPKLNGSGPGWWPECTCTNRDWYEQASPAPLLVNPEALEPSLSVNGSDGMFKYEEIVLERGNSGLGFSIAGGIDNPHVPDDPGIFITKIIPGGAAAMDGRLGVNDCVLRVNEVDVSEVVHSRAVEALKEAGPVVRLVVRRRQPPPETIMEVNLLKGPKGLGFSIAGGIGNQHIPGDNSIYITKIIEGGAAQKDGRLQIGDRLLAVNNTNLQDVRHEEAVASLKNTSDMVYLKVAKPGSIHLNDMYAPPDYASTFTALADNHISHNSSLGYLGAVESKVTYPAPPQVPPTRYSPIPRHMLAEEDFTREPRKIILHKGSTGLGFNIVGGEDGEGIFVSFILAGGPADLSGELRRGDRILSVNGVNLRNATHEQAAAALKRAGQSVTIVAQYRPEEYSRFESKIHDLREQMMNSSMSSGSGSLRTSEKRSLYVRALFDYDRTRDSCLPSQGLSFSYGDILHVINASDDEWWQARLVTPHGESEQIGVIPSKKRVEKKERARLKTVKFHARTGMIESNRDFPGLSDDYYGAKNLKGVTSNTSDSESSSKGQEDAILSYEPVTRQEIHYARPVIILGPMKDRVNDDLISEFPHKFGSCVPHTTRPRRDNEVDGQDYHFVVSREQMEKDIQDNKFIEAGQFNDNLYGTSIQSVRAVAERGKHCILDVSGNAIKRLQQAQLYPIAIFIKPKSIEALMEMNRRQTYEQANKIFDKAMKLEQEFGEYFTAIVQGDSLEEIYNKIKQIIEDQSGHYIWVPSPEKL
In the case of B2, the binding result is “binds” with myc-GFP-CRHR1 (mouse) and “no binding” in assay [1].
